# According to the RNAGym collection of RNA variant scans (doi:10.7554/elife.90254):
# The source gives no read counts; variants with many changes may rest on few reads.
# B1: LINE1-mini (parent)
# chain: GGCAGAGCUCAACACAGCGUGGCAAAGUGGCUGUGGCUAGACUGCC
# Variants of: B1
# Assay: self-cleavage, relative activity (ratio to wild type); higher = more cleavage; in vitro, sequencing; the parent is a self-cleaving ribozyme
row,Variant,self-cleavage
1,GGCAGAGCUCAAGACAGGGUGGCAAAGUGGCUGUCGCUAAACUGCC [C13G C18G G35C G40A],0.02
2,GGCAGAGCUCAAGACAGUGUGGCAAAGUGGCUUUGGCUAUACCGCC [C13G C18U G33U G40U U43C],0.03
3,GGCAGAGCUCAAGACAGAGUGGCAAAGUUGCGUUGGCGAGACUGCC [C13G C18A G29U U32G G33U U38G],0.05
4,GGCAGAGCUCAAUUCAUCGUGGCAAAGUGGCUGUGGCUAGACUGCC [C13U A14U G17U],0.05
5,GGCAGAGCUCAAGACACCGUGGCAAAGUGGAUGUGGCUAGACUGCC [C13G G17C C31A],0
6,GGCAGAGCUCAAGACAGCGUGGCGAAAUGGCUGUGGCUAGACUGCC [C13G A24G G27A],0.21
7,GGCAGAGCUCAAUACAGCGUGGCAAAGUGGCUGUGGCUAGUUUGCC [C13U A41U C42U],0.05
8,GGCAGAGCUCAAGACGGCGUCGCAAAGUGGGUGUCGCAAGACUGCC [C13G A16G G21C C31G G35C U38A],0.02
9,GGCAGAGCUCAAGACAGCGUGGCUAAGUGGCUGUGGCUAUACUUCC [C13G A24U G40U G44U],0.04
10,GGCAGAGCUCAAUACAGCGUGGCAAUGUAGCUGUGGCUAGACUGCC [C13U A26U G29A],0.19
11,GGCAGAGCUCAAUACCGCGUGGCAAAGUCGCUGUGGCUAGACUGCC [C13U A16C G29C],0.23
12,GGCAGAGCUCAAGAGAGCGUGGCUAAGUGGCUGUGGCUAGACUGCC [C13G C15G A24U],0.03
13,GGCAGAGCUCAAUACAGCGUGGCAUAGUGGCUGUGGCUAGACCGCC [C13U A25U U43C],0.03
14,GGCAGAGCUCAAGACAGCGUGGCAAAGGGGCUGUGGCUAGACCGCC [C13G U28G U43C],0.08
15,GGCAGAGCUCAAUACUGCGUGGCAAAGUGGCUGUGGCUCGACUGCC [C13U A16U A39C],0.05
16,GGCAGAGCUCAAGACAGCGGGGCAAAGUGGCUGAGGCUAGACUGCU [C13G U20G U34A C46U],0
17,GGCAGAGCUCAAGACACCGUGGGAAAGUGGCUGUGGCUAGAAUGCC [C13G G17C C23G C42A],0.04
18,GGCAGAGCUCAAGACAGCGUGGCAAAGGGGCUCUGGCUAGACUGCC [C13G U28G G33C],0.02
19,GGCAGAGCUCAAGAUAGCGUGGCAAAGUCGCUGUGGCUAGACUGCC [C13G C15U G29C],0.02

row,Variant,self-cleavage
1,GGCAGAGCUCAAUACAGCGUGGCAUAGUGGCUGUGGCUAGACUGCU [C13U A25U C46U],0.04
2,GGCAGAGCUCAAGACAGCGUGGCAGAGUGGCUGUGGCUAGACUGGC [C13G A25G C45G],0.07
3,GGCAGAGCUCAAGACAGCGUGGCAAAGUGGCUGUAGCUCGACUGCC [C13G G35A A39C],0.3
4,GGCAGAGCUCAAUGCAGCGUGGCAAGGUGGCUGUGGGUAGACUGCC [C13U A14G A26G C37G],0.03
5,GGCAGAGCUCAAGUCACCGUGGCAAAGUGGCUGUGGCUAGACUACC [C13G A14U G17C G44A],0.06
6,GGCAGAGCUCAAUACAGCGUGGCGAAUUGGCUGUGGCUAGACUGCC [C13U A24G G27U],0.1
7,GGCAGAGCUCAAGACAGCGUGGCAAAGUGGCUGUGGCUAGCUUGCC [C13G A41C C42U],0.1
8,GGCAGAGCUCAAGACAGAGUGACAAGCUGGCUGUGGCUAGACUGCC [C13G C18A G22A A26G G27C],0.05
9,GGCAGAGCUCAAUGCAGUCUGGCAAAGAGGCUGUGGCUAGACUGGC [C13U A14G C18U G19C U28A C45G],0.02
10,GGCAGAGCUCAAUACAGCGUGGCACAGUGGCUGUGGCUAGAGUGCC [C13U A25C C42G],0.04
11,GGCAGAGCUCAAGUCAGCGUGCCAAAGUGGCUGUGGCUAGACUGCC [C13G A14U G22C],0.06
12,GGCAGAGCUCAAUACAGCGUGGCAAAGUGGCUGUGGCUGGACUGGC [C13U A39G C45G],0.03
13,GGCAGAGCUCAAGACAGCGUUGCAAAGUAUCUGGGGCUAGACUGCC [C13G G21U G29A G30U U34G],0
14,GGCAGAGCUCAAUAAAGCGUGGCUAAAUGGCUGUGGCGAGACUGCC [C13U C15A A24U G27A U38G],0.03
15,GGCAGAGCUCAAGACAGCGUGGCAACGUGGCUGUGGCUAAACUGCC [C13G A26C G40A],0.08
16,GGCAGAGCUCAAGACAGCGUGGCACAGUGGCUCUGGCUAGACUGAA [C13G A25C G33C C45A C46A],0.02
17,GGCAGAGCUCAAGACAGCGUGGCAAAGUGGCCGUGGCUUGAUUGCC [C13G U32C A39U C42U],0.05
18,GGCAGAGCUCAAGACAGCGAGGCAAAGUGGCUGUGGCUAGAUUGCC [C13G U20A C42U],0.01
19,GGCAGAGCUCAAGACAUCCUGGAUAAGUGGCCGUGGCUAGACUGCC [C13G G17U G19C C23A A24U U32C],0.05

row,Variant,self-cleavage
1,GGCAGAGCUCAAGACAGCGUGCCAAAGUGGCUGUGGCUAGACUGUC [C13G G22C C45U],0.49
2,GGCAGAGCUCAAGACUGCGUGGCACAGUGGCUGUGGCUAGACUGCC [C13G A16U A25C],0.13
3,GGCAGAGCUCAAUGCAGCGUGGCAACGUGGCUUUGGCUAGACUGCC [C13U A14G A26C G33U],0
4,GGCAGAGCUCAAGACAGCGUGGCAGAGUGGAUGUGGCUAGACCGCC [C13G A25G C31A U43C],0.07
5,GGCAGAGCUCAAUACAGCGUGGCCAAGUGUCUGUGGCUAGACUGCC [C13U A24C G30U],0.06
6,GGCAGAGCUCAAUACUGCGUGGCAAAGUGACUGUGGCCAGACUGUC [C13U A16U G30A U38C C45U],0.04
7,GGCAGAGCUCAAGACAGCGUGGCAAAGUGGCUGUGGCAGGACUGCC [C13G U38A A39G],0.02
8,GGCAGAGCUCAAGACAGCGUGGCAAAGUGGCUGGGGCUAGACUGAA [C13G U34G C45A C46A],0.02
9,GGCAGAGCUCAAGACAGCGUGGCAUAGUGGCUGUGGCUAGAAUGCC [C13G A25U C42A],0.05
10,GGCAGAGCUCAAGACAGCAUGGCAAAGUCGCUGUGGCUAUAGUGCC [C13G G19A G29C G40U C42G],0.02
11,GGCAGAGCUCAAGAAAACGUGGCAAAGUAGCUGUCGCUAGACUGCC [C13G C15A G17A G29A G35C],0.23
12,GGCAGAGCUCAAGACAGCGUGGCAAAGUGGCAGUUUCUAGUCUGCC [C13G U32A G35U G36U A41U],0.03
13,GGCAGAGCUCAAGACAGCGUGGCAAACUGGCUGUGGCUAGACUGCU [C13G G27C C46U],0.06
14,GGCAGAGCUCAAUACUGCGUGUCAAAGUGGCUGUGGCUAGACUGCC [C13U A16U G22U],0.08
15,GGCAGAGCUCAAGACAGCAUUGCAAAGUGGCUGUGGCUAGACCGCC [C13G G19A G21U U43C],0.02
16,GGCAGAGCUCAAGACAGCGUGGCAGAGUGGCUGUGGCUAAACUGCC [C13G A25G G40A],0.03
17,GGCAGAGCUCAAUACUGCGUGGCAAACUAUAUGUGGCUAGACUGCC [C13U A16U G27C G29A G30U C31A],0.04
18,GGCAGAGCUCAAGAAAGCGUGGCAACGUGGUCUUGGCUAGACUGCC [C13G C15A A26C C31U U32C G33U],0.03
